Data from US20240131045A1, “METHODS FOR TREATMENT OF VIRAL INFECTIONS” (priority 2022, published 2024).

Test system: SARS-CoV-2
Assay: Efficacy in SARS-CoV-2-infected African green monkeys (AGM)
Settings: oral 60 mg/kg QD or 120 mg/kg QD, as early as 2 days of oral dosing

## CC(C)C(=O)OC[C@H]1O[C@@](C#N)(c2ccc3c(N)ncnn23)[C@H](OC(=O)C(C)C)[C@@H]1OC(=O)C(C)C [Compound 10]
  SARS-CoV-2 levels in the bronchioalveolar lavage fluid: significantly reduced
